Whole data set: some 33,000 sequences, median “E-score (-0.5 to 0.5)” near -0.012, cut for the highest 2% near 0.27. The list shows a part of the results.
biological target: T1, Vhr1 (UniProt P40522); test: PBM E-score (8-mer binding enrichment) (E-score (-0.5 to 0.5)); higher = stronger / more preferred TF binding; most listed sequences are background and not binding sites; settings: protein concentration: 200 nM; construct: GST-full length
T1 sequence: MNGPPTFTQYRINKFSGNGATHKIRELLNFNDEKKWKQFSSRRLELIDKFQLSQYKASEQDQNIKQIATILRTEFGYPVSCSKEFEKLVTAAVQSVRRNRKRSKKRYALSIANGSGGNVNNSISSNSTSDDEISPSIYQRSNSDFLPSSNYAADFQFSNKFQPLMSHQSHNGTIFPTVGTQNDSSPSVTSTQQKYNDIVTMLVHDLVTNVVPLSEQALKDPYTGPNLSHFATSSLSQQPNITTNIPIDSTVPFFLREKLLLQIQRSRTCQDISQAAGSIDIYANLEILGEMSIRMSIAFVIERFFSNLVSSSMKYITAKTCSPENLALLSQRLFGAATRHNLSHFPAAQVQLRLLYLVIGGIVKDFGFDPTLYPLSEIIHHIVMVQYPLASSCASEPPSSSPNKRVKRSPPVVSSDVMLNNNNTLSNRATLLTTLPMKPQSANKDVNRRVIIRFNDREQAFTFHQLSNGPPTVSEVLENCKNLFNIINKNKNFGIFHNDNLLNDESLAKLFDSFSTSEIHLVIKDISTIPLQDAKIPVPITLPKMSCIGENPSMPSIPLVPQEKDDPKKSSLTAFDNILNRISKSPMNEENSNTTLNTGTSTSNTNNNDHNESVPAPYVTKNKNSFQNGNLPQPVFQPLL
Procedure: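 Universal 'all 10-mer' protein binding microarrays (Agilent AMADID 015681) probed with GST-tagged S. cerevisiae TFs (full-length or DBD) made by in vitro transcription/translation (PURExpress), about 100-200 nM. Bound TF was detected with fluorescent anti-GST. Each ungapped 8-mer (which stands for itself and its reverse complement) is scored by the PBM enrichment score (E-score), a modified Wilcoxon-Mann-Whitney statistic from -0.5 to +0.5, computed with the Universal PBM Analysis Suite. Scale: above 0.35 generally sequence-specific binding.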

Row | Sequence | PBM E-score
1 | AGCGGTCA | 0.0727
2 | TCTATTCA | -0.0224
3 | GGCTGACA | 0.0588
4 | CATTCGGC | 0.035
5 | AACGGGTC | -0.162
6 | AGCAAGAT | 0.0976
7 | GTTTTGTA | 0.146
8 | GACGCGAC | -0.0185
9 | CTCCCTTC | -0.0792
10 | CTCTTGAC | -0.0604
11 | AAAGCCCG | -0.072
12 | AACATTCG | -0.00301
13 | AATTACCG | -0.0559
14 | GTTCAGAA | -0.155
15 | AACAAGAA | -0.0092
16 | AGTGGATG | 0.0884
17 | ACAGACCC | 0.131
18 | TACCTGAA | 0.017
19 | AAAGGTGG | -0.0416
20 | ACGGCCTA | 0.0178
21 | AGATGGCA | -0.049
22 | ACCTGAGC | 0.0548
23 | ACTCAGAT | 0.251
24 | ACGATTAA | 0.09
25 | TCCGCGCA | -0.031

Row | Sequence | PBM E-score
26 | AACTATCA | 0.14
27 | CTGCGCGC | 0.247
28 | GTATTACA | 0.229
29 | CGGTGCCA | -0.221
30 | AACGTACG | -0.209
31 | ACTGCCTG | 0.156
32 | ACGTGAAT | -0.0434
33 | CGTCTACC | -0.153
34 | GCGGCTAC | 0.124
35 | AAGTAGAT | 0.0488
36 | ACGATGCG | -0.0423
37 | CGCTCACG | 0.0319
38 | CCAGTACA | 0.163
39 | ATCTTGAC | 0.0163
40 | AGGGGTTC | -0.119
41 | AATTGGCA | -0.0116
42 | GGTCCAGA | -0.0119
43 | CGTGAATC | 0.2
44 | AGGTGGAC | -0.111
45 | GTTCCGCA | 0.0962
46 | GAACGGTA | -0.136
47 | AATCTCAG | -0.102
48 | GCTTCACA | -0.176
49 | ACTTCTTG | -0.106
50 | AGTCGCAT | 0.224

Row | Sequence | PBM E-score
51 | ATTATGAA | 0.14
52 | GCTCAAAC | -0.0721
53 | GCGAGCAC | 0.0621
54 | GATGTCGC | -0.0292
55 | GATTGGGA | -0.0169
56 | CTCATACC | 0.0653
57 | CGCTAGTA | 0.057
58 | CTGGTGGC | 0.105
59 | CCGCCCCG | 0.365
60 | ATAAAATA | 0.0515
61 | AAACGTCC | -0.191
62 | GTGTTCGA | 0.0696
63 | CGTTTTCA | -0.0454
64 | CGGGAAAA | -0.0969
65 | CCTATAAA | -0.2
66 | GCCGGCGA | 0.0498
67 | AACATTTA | -0.0926
68 | AGCCATGA | 0.228
69 | GGGAGCCC | -0.237
70 | CTGTTGTA | 0.0584
71 | AAAGAACA | -0.189
72 | TAACTTCA | -0.037
73 | CAGATTAG | -0.0795
74 | GACAACAA | 0.145
75 | AGAGATAT | -0.0397

Row | Sequence | PBM E-score
76 | GAGTGCAC | -0.0044
77 | AATTTTCC | -0.108
78 | AGTGAAGA | 0.0113
79 | AGCGGAAG | -0.158
80 | ACGCAGCC | 0.0794
81 | AAATTAGT | 0.123
82 | AAAAGCCG | -0.0948
83 | CCGCGCAC | 0.237
84 | AATCAAAA | -0.0307
85 | CAATTAAC | 0.018
86 | CCCGCCGG | 0.134
87 | ACGTAGTC | 0.186
88 | GAGGCAGA | -0.159
89 | ATTTTGCA | -0.149
90 | GACCGGCC | -0.045
91 | AGCCGTAT | -0.0187
92 | CCAGTGCC | -0.015
93 | CAGTGCAC | 0.0386
94 | ACCTGACC | 0.11
95 | AAAAACAC | -0.0576
96 | GACCCCAC | 0.114
97 | ATACTTTG | 0.163
98 | GGTCGTGA | -0.0896
99 | GAGAACCC | -0.185
100 | TCAATGGA | 0.0718

Row | Sequence | PBM E-score
101 | CTCTTATA | 0.0819
102 | AGATGCAG | -0.0102
103 | AATTATCT | -0.0991
104 | ACCGAACT | -0.0256
105 | CTGGTTTC | -0.0225
106 | AGCACAAC | 0.0833
107 | AAGGCTGA | -0.151
108 | AAATTGTG | -0.111
109 | AAGAACAC | -0.0115
110 | CATAGGTA | -0.0408
111 | ATTTGAGC | -0.0968
112 | ACAGCCCA | -0.0494
113 | CCGACCGG | 0.114
114 | CGATGCAA | -0.175
115 | ATGACATA | 0.122
116 | ATTCGATG | 0.0921
117 | ATCGCTCA | 0.147
118 | GTAGCGTA | 0.13
119 | AGTGTGCA | 0.00584
120 | CAAGACGA | -0.109
121 | ACGTTGAT | 0.214
122 | CTGGCGGC | 0.0715
123 | AGGTAATA | 0.102
124 | GTGGCCCA | -0.0875
125 | ATCCCTCG | 0.147

Row | Sequence | PBM E-score
126 | AGGCCACA | -0.0918
127 | CAATGATA | 0.211
128 | ATTCTTCG | -0.173
129 | GAGGCCAC | -0.0743
130 | CGTGATAA | -0.0969
131 | AGTTCACC | 0.0852
132 | GTTTGGTA | 0.259
133 | CCTCACAG | 0.0151
134 | AAAGCCTT | -0.212
135 | CTGCATAA | 0.163
136 | CAAGACCC | -0.0994
137 | AAGACTCG | 0.0518
138 | CAGCGCAG | 0.117
139 | CACGCTGA | -0.0324
140 | TCCCCAAA | 0.106
141 | CGATTGTC | -0.129
142 | CAAAAGCC | -0.286
143 | CTGATCGA | 0.0718
144 | AATACAGC | 0.0596
145 | ACTTCATC | -0.251
146 | GAAGGTAC | -0.116
147 | AGGTCGTG | -0.00814
148 | CCGCGGCG | 0.166
149 | CCAGTGAA | -0.127
150 | GACGCCTA | -0.169

Row | Sequence | PBM E-score
151 | CAACGGCA | -0.0309
152 | GGCAGTTA | -0.136
153 | GATCGCAA | 0.0651
154 | GCCACGTA | -0.189
155 | GGGAAATA | -0.0494
156 | CTATCTGC | -0.153
157 | CCCGCAGC | -0.0814
158 | GACAGATA | 0.13
159 | GTCATTAA | 0.206
160 | CAGCTACG | -0.0492
161 | CATGCTTC | 0.00013
162 | CGCGGTCC | -0.137
163 | AAATGAAC | -0.11
164 | GTTGGTTA | 0.146
165 | AGTCTTAT | 0.079
166 | AGTTTACG | -0.034
167 | CTACGCAA | -0.0494
168 | CCTAGCAG | -0.126
169 | TAGAAAAA | -0.206
170 | AACTATGA | 0.22
171 | GAACGTCC | -0.154
172 | CCATCGAC | 0.0267

From the supplement of paper PMC3334620
